The text below walks through data of PubChem BioAssay AID485344 (National Center for Advancing Translational Sciences (NCATS), 2010).

The whole screen tested about 340,000 compounds, of which about 6,900 (2%) were called active. Cut-off read from the data, not from the text of the source: active = inhibition above about 30%; inactive = below that, where a call was filed. Only a part is listed here, and it is no random draw. The source gives no active or inactive call for entries shown without one.

The target in this assay is D(2) dopamine receptor (Homo sapiens) (UniProt P14416). The experiment in a line: HTS Assay for Allosteric Antagonists of the Human D2 Dopamine Receptor: Primary Screen for Antagonists. Note: 0% is about no effect. As to conditions: HEK293 TREx D2 cells, calcium flux, dopamine EC80; at 10 µM; stronger effect = higher value. An outline of the steps: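 Overnight-induced (tetracycline, 30 C) HEK293 T-REx cells carrying force-coupled D2 receive a no-wash calcium dye, then compound, then EC80 dopamine at 180 s; signals are read kinetically throughout.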
Chain of UniProt P14416 (P14416 whole entry, looked up): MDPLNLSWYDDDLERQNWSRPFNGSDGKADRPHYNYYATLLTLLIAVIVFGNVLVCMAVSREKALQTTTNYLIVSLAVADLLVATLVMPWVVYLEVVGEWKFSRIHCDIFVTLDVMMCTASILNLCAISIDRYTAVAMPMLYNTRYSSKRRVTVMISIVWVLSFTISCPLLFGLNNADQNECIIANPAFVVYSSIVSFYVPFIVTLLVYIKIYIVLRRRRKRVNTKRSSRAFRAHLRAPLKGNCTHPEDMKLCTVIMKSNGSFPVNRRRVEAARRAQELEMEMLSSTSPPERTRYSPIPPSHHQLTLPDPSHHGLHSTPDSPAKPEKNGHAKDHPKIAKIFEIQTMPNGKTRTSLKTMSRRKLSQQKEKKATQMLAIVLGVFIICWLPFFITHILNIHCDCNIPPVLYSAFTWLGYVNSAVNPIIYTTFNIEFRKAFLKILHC
For orientation: Calcium flux is commonly read through the fluorescence of an indicator in the cells.
One may read the inhibition as the change of the read-out against control, counted positive when it falls. In the case of `CCN(Cc1ccccc1)C(=O)CCS(=O)(=O)c1ccc2c(c1)CCN2C(C)=O`, the inhibition is -4.97%.
As for `CCc1ccc(NC(=O)c2sc3nc(C)cc(C)c3c2NC(=O)c2ccccc2OC)cc1`, the inhibition came out at 12.7%.
With `CCc1ccc(-c2nc(CSCC(=O)NCc3ccc(C)cc3)c(C)o2)cc1`, the inhibition came to 3.7%.
Turning to `COc1ccc(CN2CCN(S(=O)(=O)c3ccc(NC(C)=O)cc3)CC2)c(OC)c1OC`, the inhibition is -0.191%.
As to `CC(=O)c1cc2c(cc1N/C(=N/S(=O)(=O)c1ccc(F)cc1)c1ccccc1)OCO2`, the inhibition is -0.344%.
To `O=C(NCCCN1CCN(c2ccccc2)CC1)c1cc2c(s1)-c1ccccc1OC2` belongs 8.77%.
With `Cc1ccccc1Cc1c(C)nc2nc(SCC(=O)NC(C)c3ccccc3)nn2c1C` (configuration not stated), the inhibition was 5.64%.
Consider `CCOC(=O)c1c(C)oc2nc(C)nc(NCCCN3CCN(c4cccc(C)c4)C(C)C3)c12` (configuration not stated), for which the inhibition stood at 3.88%.
For `CCC1CN(C(=O)Nc2cccc3c2CCCC3)c2cc(C)ccc2O1` (configuration not stated), the inhibition is -22.5%.
For the compound `O=C(CNC(=O)c1cccs1)N/N=C/c1c(F)cccc1Cl`, the inhibition was active: 30.5%.
Consider `CCCCNC(=O)C1CCN(Cc2nc(-c3ccc(OC)c(OC)c3)oc2C)CC1`, for which the inhibition was -10.9%.
Regarding `O=C(NCc1ccc(Cl)cc1)C1CCCN(c2ncnc3onc(-c4ccc(F)cc4)c23)C1` (configuration not stated), the inhibition was determined as 6.22%.
For the compound `Cc1cccc(NC(=O)c2c(Br)sc3c2CCCC3)c1`, the inhibition is -3.76%.
To `COc1ccccc1N1CCN(C(=O)CSc2nc(-c3ccc(C(C)C)cc3)no2)CC1` belongs 7.33%.
As for `COc1ccc(C2CC(=O)c3c([nH]c(C(=O)OCc4ccccc4)c3C)C2)cc1OC` (configuration not stated), the inhibition is 5.16%.
For `CCCCNC(=O)CSc1nc2n[nH]c(C)c2c(=N)n1-c1ccccc1CC`, the inhibition was determined as 19.4%.
For `CCOc1cc(C2c3c(oc4ccc(F)cc4c3=O)C(=O)N2Cc2ccc(C)cc2)ccc1O` (configuration not stated) the value was 3%; for `O=C(COc1ccccc1F)Nc1nnc(S(=O)(=O)N2CCCCCC2)s1`, 20.5%.
Regarding `CCN(CC)c1ccc(NC(=S)NC(=O)Cc2ccccc2)cc1`, the inhibition was active: 77.2%.
As for `COc1ccc(NC(=O)C(Cc2ccccc2)n2cccc2)c(OC)c1` (configuration not stated), the inhibition amounted to 1.68%.
To `CC(C)CCNC(=O)CSc1nc2ccsc2c(=O)n1Cc1ccccc1Cl` belongs -16.3%.
For `COc1ccc(-c2noc(-c3ccccc3NC(=O)c3cc(OC)c(OC)c(OC)c3)n2)cc1` the value was 4.06%.
Turning to `O=S(=O)(Nc1nc2n(n1)C(c1ccccc1)C=C(c1ccc(Cl)cc1)N2)c1ccccc1` (configuration not stated), the inhibition amounted to 1.09%.
For `Cc1ccc(CNC(=O)CN(c2cc(C)cc(C)c2)S(=O)(=O)c2c(C)[nH]c(=O)[nH]c2=O)cc1`, the inhibition is 1.79%.
For `Cc1ccc(N2CCN(C(=O)c3nn(C)c4c3CSc3ccccc3-4)CC2C)cc1` (configuration not stated) the value was 3.66%.
For the compound `CCOc1ccc(-c2ccc(CO)o2)cc1N`, the inhibition was -4.96%.
Turning to `CCc1cccc(NC(=O)CCS(=O)(=O)c2ccc(C)cc2)c1`, the inhibition came out at 22%.
Regarding `CCc1ccc(C2c3c(n[nH]c3C)C(=O)N2c2ccc(C)cc2)cc1` (configuration not stated), the inhibition is -5.08%.
To `O=C(NC1CCCC1)c1ccc2c(c1)N(Cc1ccc(F)cc1)C(=O)c1ccccc1S2` belongs -2.49%; to `CCN1C(=O)CC(C(=O)Nc2ccc(OC)cc2)SC1=Nc1ccc(C)c(C)c1` (configuration not stated), 4.81%.
As to `O=C(NCCC1=CCCCC1)c1ccc2c(c1)N(Cc1ccccc1)C(=O)c1ccccc1S2(=O)=O`, the inhibition is -15.1%.
As for `CCOC(=O)c1noc2ncn(CC(=O)O)c(=O)c12`, the inhibition is -5.53%.
In the case of `O=C(Cn1cc(SCc2ccccc2Cl)c2ccccc21)N1CCCCCC1`, the inhibition is 10.7%.
In the case of `COc1ccc(OC)c(CNS(=O)(=O)c2ccc(-c3cc(C(F)(F)F)on3)s2)c1`, the inhibition turned out to be 4.63%.
For the compound `O=C(NCCN1C(=O)S/C(=C\c2ccccc2)C1=O)C1CCN(S(=O)(=O)c2cccs2)CC1`, the inhibition is active: 33.4%.
Turning to `COc1ccc(NC(=O)C(c2ccc(OC)cc2)N(C)C(=O)CNC(C)=O)cc1` (configuration not stated), the inhibition is active: 38.2%.
For `O=C(Nc1ccc2c(c1)N(C1CCCC1)C(=O)c1ccccc1S2)c1ccccc1` the value was -10.8%; for `COc1ccc(F)cc1C(=O)C1CCCN(Cc2ccc(Oc3ncccn3)cc2)C1` (configuration not stated), active: 48.9%; for `Cc1ccc(SCC(=O)Nc2ccc3oc(-c4cccc(C)c4)nc3c2)cc1`, -0.125%.
For the compound `COc1ccc(CCNC(=O)C(=O)NCC(c2cccs2)S(=O)(=O)c2ccccc2)cc1` (configuration not stated), the inhibition came out at 17.7%.
For `COc1cccc(-c2nc(CS(=O)CC(=O)N3CCN(c4cccc(C(F)(F)F)c4)CC3)c(C)o2)c1` (configuration not stated), the inhibition was 16%.
For `Cc1ccc(Cl)cc1NC(=O)CCS(=O)(=O)c1ccc(Br)s1` the value was 3.88%; for `Cc1ccc(Cn2c(=O)c3ccccc3n3c(-c4ccccc4)nnc23)cc1`, 12%.
As for `COc1ccc(CCN(Cc2cc3cccc(C)c3[nH]c2=O)C(=O)NC2CCCCC2)cc1OC`, the inhibition is active: 31.3%.
For `CCc1ccc(CNC(=O)CSCc2cnn(-c3ccccc3)c2-n2cccc2)cc1` the value was 4.09%.
For the compound `COc1ccc(C2CC(=O)N3CN(C4CCCCC4)CSC3=C2C#N)cc1` (configuration not stated), the inhibition came out at 21.6%.
As for `Cc1ccc(OCC(=O)Nc2ccc3nc(SCC(=O)N4CCCC4)sc3c2)cc1C`, the inhibition is -4.01%.
To `COc1ccc(NC(=O)CCCS(=O)(=O)c2nc(-c3ccc(OC)c(OC)c3)cc(C(F)(F)F)n2)cc1OC` belongs 11.3%.
For the compound `CCC1CN(C(=O)NCc2ccc(F)cc2)c2ccccc2O1` (configuration not stated), the inhibition amounted to 14.4%.
Consider `Cc1ccc(N2CCN(CC(O)COc3ccccc3)CC2)cc1` (configuration not stated), for which the inhibition was active: 38.9%.
Take `Cc1ccc(NC(=O)c2ccco2)c(OCc2cc(=O)n3cc(C)sc3n2)c1`: the inhibition worked out at 7.46%.
Regarding `CN(C)c1ccc(CN(CC2CCCO2)C(=O)COc2ccc(Cl)cc2)cc1` (configuration not stated), the inhibition stood at 0.501%.
To `Cc1nc(N2CCCC2)ncc1C(=O)Nc1ccccc1` belongs -5.09%.
Regarding `CC(C)CC(=O)Nc1ccc(C(=O)OCc2cc(=O)n3nc(C4CCCCC4)sc3n2)cc1`, the inhibition is 0.943%.
To `COc1ccccc1NC(=O)CSc1ncc2c(n1)-c1cc(Cl)ccc1N(C)S2(=O)=O` belongs -5.81%.
With `Cc1cc(C)n(CCn2nc(C)cc2C)n1`, the inhibition is active: 40.7%.
Turning to `COc1cccc(CN2C(=O)c3ccccc3C2C(=O)NCCc2ccc(OC)c(OC)c2)c1` (configuration not stated), the inhibition came to 7.18%.
On to `CC(=O)N1CCCc2cc(S(=O)(=O)N3CCCC(C(=O)NCc4ccc(Cl)cc4)C3)ccc21` (configuration not stated), for which the inhibition is -1.03%.
As for `Cc1cc(O)c(C(c2cccc(Cl)c2)N2CCN(c3ccccc3)CC2)c(=O)n1Cc1ccco1` (configuration not stated), the inhibition is -6.54%.
As to `CCCn1c(=O)c2sccc2n2c(CCCC(=O)NCCOC)nnc12`, the inhibition was found to be 0.054%.
Turning to `O=C(c1cccs1)N1CCN(C/C=C/c2ccccc2)CC1`, the inhibition is active: 69.4%.
Consider `COc1cc(C(C)=O)ccc1OCC(O)CN1CCN(c2ccc(F)cc2)CC1` (configuration not stated), for which the inhibition was active: 40.1%.
